In the RNAGym collection of RNA variant scans (doi:10.7554/elife.90254) one finds self-cleavage data, which are given here for 56 variants.

B1: LINE1-mini (parent)
chain: GGCAGAGCUCAACACAGCGUGGCAAAGUGGCUGUGGCUAGACUGCC

Read counts are not given, so values of variants with three or more changes are uncertain.

Variants of B1 are the subject of this data set. Put plainly: self-cleavage, relative activity (ratio to wild type); higher = more cleavage; in vitro, sequencing; the parent is a self-cleaving ribozyme.
Take GGAAGAGCUCAACACAGCGUGGAAAAGUGUCUGUGGCUAGACUGCC [C3A C23A G30U]: the self-cleavage is 0.9. For the variant GGCAGAGCUCAACACAGCGUGGCAAAGUGGGUAUGGCUACACUGCC [C31G G33A G40C], the self-cleavage is 0.02. The result for GGCAGAGCUCAACACAGGGUGGCAGAGUGGCUUUGGCUAGACUGCC [C18G A25G G33U] reads 0.02.

For GGCAGAGCUCAACACAGCGUGGCAAAGAGGCUGUGGUUAGACUAUC [U28A C37U G44A C45U], the self-cleavage is 0.03.

Take GGCAGAGCUCAACACAGCGUGGCUAAGGGGCUCUGGCCAGAGUGCC [A24U U28G G33C U38C C42G]: the self-cleavage is 0.01. Turning to GGCAGAGCACAACACAGCGUGACAAAUUGGCUGUGGCUAGACAGCC [U9A G22A G27U U43A], the self-cleavage amounted to 0.12. On to GGCAGAGCUCAACGCAGCGUGGCAAAUCGGCUGUGGAUAGACUGCC [A14G G27U U28C C37A], for which the self-cleavage is 0.07.

On to GGCAGAGCUCAACACAGCGUGGCAUAGUGGCUGUGGCUGUACUGAC [A25U A39G G40U C45A], for which the self-cleavage was found to be 0.07. For the variant GGCAGGGCUCAGUACAGCGUGGCAAAGUGGCUGUGGCUAGUCUGCC [A6G A12G C13U A41U], the self-cleavage came out at 0.01. Then GGCAGACCUCAACACAGCGUGGCAAAGUGGCGUUGGCUAGACUGCC [G7C U32G G33U], with 0.16; and GGCAGAGCUGAACAUAGCGUCGUAAAGUGGCUGUGGCUAGAAUGCC [C10G C15U G21C C23U C42A], with 0.02; and GGCAGAGCUCAACAUAGCUUGGCAAAGUGGCUGAGGCUAGACUGCC [C15U G19U U34A], with 0.03. The result for GGGAGAGCUCAACACAGCGUGGAAAAGUGGCAGUGGCUAGACUGCC [C3G C23A U32A] reads 0.19; that for GGCAGAUCUCAACACAUCGUGGCAAAGUGGCUGUGUCUAGACUGCA [G7U G17U G36U C46A], 0.14. Then GGCAGAGCUCAACACAGCUUGGCAAAGUGGCCUUGGCUAGACUGCC [G19U U32C G33U], with 0.03; and GGCAGAGCUGAACACAGCGAGGCACAGUGGCUGUGGCUAGACUGCC [C10G U20A A25C], with 0.04; and GAAAGAGCUCAACACAGCGUGGUAAAGUGGCUGUGCCUAGACUGCG [G2A C3A C23U G36C C46G], with 1.34.

In the case of GGCAGAGCCCAACACAGUGUGGUAAAGUGGCUGUGGCUAGACUGCC [U9C C18U C23U], the self-cleavage came to 0.02. Then GGCAGAGCUCAACACAGCGUGGCAAAGUGGCUGGGGCUAGACGGGC [U34G U43G C45G], with 0.02. Then GGCAGAGUUCAACACAGCGAGGCAAAGUGGCUGUGGCUAUACUGCC [C8U U20A G40U], with 0.32. For GGCAGAGCACAAAACAGCGUGGCCAAGUGGCUGUGGCAAGACUGCC [U9A C13A A24C U38A], the self-cleavage was 0.12.

For the variant GGCAUAGCUCAACACAGCGUGGCGAAGUGGCUGUUGCUAGACUGCC [G5U A24G G35U], the self-cleavage turned out to be 0.01. The result for GGUAGAGCUCAACACGGCGUGGCAAAGGGGCUGUGGCUAGACUGUC [C3U A16G U28G C45U] reads 0.21. Take GGCAGUCCUAAACUCAGCGUGGCGAAGUGGCUGUGGCUCGACUGCA [A6U G7C C10A A14U A24G A39C C46A]: the self-cleavage worked out at 0.01. Then GACCGGGCUCAACACAGCGUGGCAAAGUGGCUGUGGCUAGAUUGCC [G2A A4C A6G C42U], with 0.02; and GGCGGCGCUCAACACAGCGUGGCAAACUGGCUUUGGCUAGACUGCC [A4G A6C G27C G33U], with 0.14; and GGCAGAGCUCAAUACAGCUUGGCAAAGUGGGUGUGGCUAGACUGCG [C13U G19U C31G C46G], with 0.15. The result for GGCAAAGCCCAACACAGCGUUGCAAAGUGGCUGUGGCUGGACUGCC [G5A U9C G21U A39G] reads 0.04.

On to GGCAGAGCUCAUGACAGCGUGUCAAAACGACUGUGGCUAGACUGCC [A12U C13G G22U G27A U28C G30A], for which the self-cleavage was found to be 0.32.

On to GGCAGAGCUUGACACAGCGUGGCAAAGUGGCUGUGGCUGGACUGCC [C10U A11G A39G], for which the self-cleavage amounted to 0.

Turning to GGCAGAGCUCAACACAGCGUGGCGAAAUGGGUGUGGCUAGACUGCC [A24G G27A C31G], the self-cleavage amounted to 0.11. Regarding UCCAGAGGUCAGCCCAGCGUGGCAAAGCGGCCGUGGCUAGACUGCC [G1U G2C C8G A12G A14C U28C U32C], the self-cleavage stood at 0.01. The result for GGCACAGAUCAACACAACGUGGAAAAGUGGCUGUGGCUAGACUGCC [G5C C8A G17A C23A] reads 0.07; that for GGUAGAGCUCAACACAGCAUGGCAAAGUGGGUGCGGCUAGACUGCC [C3U G19A C31G U34C], 0.03. The result for GGCGGAGCUCAACACGGCGUGGCAAAGUGGCUGUGGCUAGAGUGCC [A4G A16G C42G] reads 0.03; that for GGCAGAGCUCAACACAGAGUGGCAAAGUGGCUGCGGCUAGACUGAC [C18A U34C C45A], 0.02. The result for GCCAGAGCACAACACAGCGUUGCAAAGUGGCUGUGGCUAGACUGAC [G2C U9A G21U C45A] reads 0.42; that for GGCAGAGCCCAACACUGCGUGGCAAAGUUGAUGUGGCUAGACUGCC [U9C A16U G29U C31A], 0.01. As to AGCACACCUCAACACAGCGUGGCAAAGUGCCUGUGGCUAAACUGCC [G1A G5C G7C G30C G40A], the self-cleavage worked out at 0.45.

For the variant GGCAGAGCUCAACACAGCGUGGCCAAGAGGCUGUAGCUAGAUGGCC [A24C U28A G35A C42U U43G], the self-cleavage came out at 0.02.

As to GGCAAAGCUCACCACAGCGUGGCAGAGUGGCUGUGGCUAGACUGCC [G5A A12C A25G], the self-cleavage worked out at 0.05. The result for GGCAGCGCUCAACACAGCGGAGGUAAGUGGCUGUGGUUAGACUGCC [A6C U20G G21A C23G A24U C37U] reads 0; that for GGCCGAGCUCAAGACAGCGUGUCAAAGUGGCUCUGGCUAGACUGCC [A4C C13G G22U G33C], 0.02; that for GGCAAAGCUCAACACAGAGUGGCAAAGUGGCUGUCGCUAGACUGCC [G5A C18A G35C], 0.04. As to GGCCGAGGUACACACAGCGUGGCAAAGUGGCUGUAGCUAGACUGAC [A4C C8G C10A A11C G35A C45A], the self-cleavage amounted to 0.02. Turning to GGCAGAGCUCAACACAUCAUGGCAAAAUGGCUGAGGCUAGCCUGCC [G17U G19A G27A U34A A41C], the self-cleavage was 0.02. As for UGCAGAGCUCAACACAGCGCGGCAAAGUGGAUGUGGCUAGACUGCC [G1U U20C C31A], the self-cleavage came out at 0.04. Consider GGCAGAGCUCAACACGGCGUGGCAAAGUGGCUCUGGAUAGACUGCG [A16G G33C C37A C46G], for which the self-cleavage came out at 0.01. Regarding GGCAGAGCUCAACACAACGUGGCAAAGUGCCGGUGGCUAGACUGCC [G17A G30C U32G], the self-cleavage is 0.22. Turning to GGCAGAGCUCAUCAAAGCGUGGCAAAGUGGCUGUGGCUACACUGCC [A12U C15A G40C], the self-cleavage was 0.07. For GGCAAAGCUCACCACAGCGUGGCAAAGUGGCUGCGGCUAGACUACC [G5A A12C U34C G44A], the self-cleavage came out at 0.02. Then GGUUGAGCUCAACACAGCGUGCCAAAGUGGCUGUGGCUAGACUGCC [C3U A4U G22C], with 0.07; and GUCAGAGCGCAACACAGCGUGGCAAGGUGGCUGUGGCUAGACUGCC [G2U U9G A26G], with 0.02; and GGCAGAGCUUAACACAGCGUGGCAAACUGGCUGUGGCUAGACUGAC [C10U G27C C45A], with 0.03.

Regarding GGCAGAGCUCAACACAGCGUGGCAAAUUGGCAGUGGCUAGACUGUC [G27U U32A C45U], the self-cleavage was determined as 0.23. As for GGCAGAGCUCAACACAGAGUGGCUAAGUGGCUGUGGCUAGACUGUC [C18A A24U C45U], the self-cleavage was 1.6.
